From the supplement of paper PMC11383711
This is one part of the list. Binding of human antibodies (heavy:light variable regions, tested as scFv in one mRNA-display pool) to influenza hemagglutinin, with or without the stem antibody CR9114 bound first. Score = (mean enrichment − median) / interquartile range of that screen; higher = more enriched, 0 = typical non-binder. Active = above the paper's cut-off per screen: stems 28; unblocked H1 Solomon Islands 5, H1 Michigan 3, H3 5, H5 19, H7 2.85, both B 5; blocked 9, 7, H5 10, H7 10, B Phuket 10, B Lee 11.5. Scores are scaled within each screen and are no affinities; replicates correlate at about 0.6 to 0.9, and antibodies rare in the pool are noisier.

B1: W85-3F01 (protein)
chain 1: EVQLVESGGDLVQPGRSLRLSCEASGFTFSSYEMSWVRQPPGKGLEWVSYISSSGATFYYADAVKGRFTISRDNAKNSLYLQMNSLRAEDTAVYYCASLITGYNSYWYWVDHLDSWGHGTLVTVSS
chain 2: DIVMTQSPLSLPVTPGEPASISCRSSQSLLHSNGYNYLDWYLQKPGQSPQLLIYLGSIRASGVPDRFNGSGSGTDFTLKIIRVEAEDVGVYYCMQALQTAFTFGPGTKVDIK
B2: R95-2C10 (protein)
chain 1: EVQLVESGGVAVKPGGSLRLSCAASGFTFDDYVMHWVRQVPGKGLEWVSLISWDGGSRYYADSVKGRFTISRDNSKNSLYLQMNNLRPEDTALYYCVKDRESGNYYHFYYMDAWGKGTTVTVS
chain 2: QSVLTQPPSVSAAPGQKVTISCSGSSSNIGNNHVSWFQQLPGTAPKLLIYDNDKRPSGIPDRFSGSKSGTSATLGITGLQTGDEADYYCETWDSSLSGGGVVFGGGTRLTVI
B3: C1-E04 (protein)
chain 1: VQLQESGPGLVKPSETLSLTCTVSGDSIISSGSYWAWIRQPPGKGLEWIGFVYYSGSTYYSTSLKSRVTISVDTSKNQFSLKLTSVTAADTAVYFCARDRGGEEYYYGMDVWGPGTTVTVSS
chain 2: DIQMTQSPSSLSASVGDRVSITCRASQFIINNLNWYQKKPGKAPWLLIYSASTLQSGVPSRFSGSRSGTDFTLTISSLEPEDFATYYCQQGYSTPHTFGQGTKVEIK
B4: 039-10-5B02 (protein)
chain 1: QVQLQESGPGLVKPPQTLSLTCTVSGGSVSSGTYYWSWIRQPAGKGPEWIGRIYTTGSTDYNPSLKSRVTISIDTSNNRFSLRLNSVTAADTAVYYCARVGPHPTQGVSYFDHWGQGILVTVSS
chain 2: EIVLTQSPVTLSLSPGERATLSCRASQSFSNYLAWYQQKPGQAPRLLIYDASTRATGVPARFSGSGSGTDFTLTISSLEPEDFAVYYCQLRSNWPLFFTFGPGTKVDIK
B5: 36.d.02 (protein)
chain 1: QVQLQESGPGLVKPSQTLSLTCIVSGGSISSGDYFWSWIRQPPGKGLEWIAYMYYTGSTYYNPSLKSRVAISVDTSKNHLALKLTSVTAADTAVYYCGRIPRDIVLVPGGSRWAATIDDWGQGILVTVSS
chain 2: EIVMTQSPVSLSLSPGERATLSCRASQSVSSYLAWYQQKPGQAPRLLIYGASNRATDIPARFRGSGSGTDFTLTISSLDPEDFAVYYCQQYTNWPRTFGQGTKVETK
B6: 013-10-3F02 (protein)
chain 1: QVQLVESGGGVAQPGRSLRLSCAASGFTFSTYGMHWVRQAPGKGLEWVAVISYDGSKRYYAEILKDRFTISRDNSKNTVYLQMNSLRTEDTAVYFCAKEGRPLIVSGTHFFQFYYGMDVWGQGTTVTVSS
chain 2: DIQMTQSPSSLSASVGDRVTISCRASQSIGTYLNWYQQKPGKAPNLLIYGTSTLKSGVPSRFSGSGSGTDFTLTIGSLQPEDFATYFCQQSFSPPLTFGRGTRLEIK
B7: AG12-3A03 (protein)
chain 1: VQLVESGGGLAQPGRSLRLSCRTSGFRFVDYGMSWFRQAPGKGLEWVSFIGSKSYGATKDYAASVRDRFIISRDDSKSIAYLEMNSLKTDDTAIYYCSRVPLLWRNGWDDDYWGQGTLVTVSS
chain 2: DIQMTQSPSSLSASVGDRVTITCRASQDITNYLAWFQQRPGEAPKSLIYGASGLQTGVPSRFSGSGSGTDFTLTINSLQPEDFATYYCQQFYNYPITFGGGTKVEIK
B8: K77-2B11 (protein)
chain 1: LVQFQESGPGLVKPSETLSLTCTVSGGSISSSTYYWGWIRQPPGKGLEWIGSIYYDGSTYYNPSLKSRVTISVDTSKSRFSLTLSSVTAADTAIFYCARVAQWLRPGYFDYWGQGTLVTVSS
chain 2: DIVMTQSPDSLAVSLGERATINCKSSQSILYSSINKNYLAWYQQKPGQPPKLLIYWASTRESGVPDRFSGSGSGTDFTLTISSLQAEDVAVYYCQQYYGTPPTFGQGTKLEIK
B9: R95-1H04 (protein)
chain 1: QVQLQESGPGLVKPSETLSLTCSLSSGYIGTYSWNWIRQAPGKGLEWIGYVSNSGSTKYNPSLQSRVTISVDMSKNQFSLELRSVSAADTALYYCARAHYFGSGNFIYGYFYYGMDVWGQGTMVTVSS
chain 2: SYELTQPPSVSVSPGQTASITCSGDKLGDKYACWYQQKPGQSPLLVIYQDTKRPSGVPERFSGSNSGNTATLTINGTQAMDEADYYCQAWDITTHVAFGGGTKLSVL
B10: antibody 3E05 (protein)
chain 1: VQLVQSGAEVKKPGASVKVSCKASGYTFTTYDIHWVRQAPGQGLEWMGWLNPNSGYTVYAQKFQGRLTMTRNTSIRIAYLELSSLRSEDTAVYYCARDDGYCTSNNCYSRGMDVWGQGTTVTVSS
chain 2: EIVLTQSPGTLSLSPGERATLSCRASQNFSSNYLAWYQQKPGQAPRLLIYGASSRATGIPDRFSGSGSGTDFTLTISRLEPEDFAVYYCHQYGRSFGQGTKVEIK

Columns and labels:
[1] = biological target: H1 HA stem construct (mini-HA #4900); experiment: mRNA display binding score; higher = more enriched on the antigen; conditions: antigen blocked with: nothing
Description: (§1)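 A pool of natively paired antibodies, displayed as scFv on mRNA, was selected once on antigen-coated beads and sequenced before and after; two replicates.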

[2] = biological target: H3 HA stem construct (H3ssF); experiment: as above; conditions: antigen blocked with: nothing
Description: as §1

| Binder | mRNA display binding score [1] | mRNA display binding score [2] |
| --- | --- | --- |
| B1 | inactive: 0.303 | inactive: 2.01 |
| B2 | inactive: -1.31 | inactive: 0.335 |
| B3 | inactive: -0.999 | inactive: -0.511 |
| B4 | inactive: -0.132 | inactive: 0.857 |
| B5 | inactive: 0.033 | inactive: 0.0676 |
| B6 | inactive: 1.47 | inactive: 0.804 |
| B7 | inactive: 1.8 | inactive: 0.921 |
| B8 | inactive: 0.658 | inactive: 0.473 |
| B9 | inactive: 0.568 | inactive: 0.411 |
| B10 | inactive: -0.424 | inactive: -0.191 |
